Some of these results come from one statement about several compounds together. For some of these results: At least one compound was matched to its structure with a doubt left. Some ranges recur; such a range may be that of the whole group of compounds. Numbered stars: 1 amine (or outer) side, 2 acyl side, 3 side chain; on linkers, the order of the positions; unused ones are H or OH. Bridge positions count the residues as written; N and C are the ends. Square brackets hold non-standard residues; d marks the D form. Peptide text beside a SMILES is read from it. X1 = CC(=O)NC(C(=O)OC(C(C)C)C(N[*:1])C(=O)[*:2])C(O)C(C)C; PhLac = O=C(O)[CH](O)Cc1ccccc1; NMeT = CN[CH](C(=O)O)[CH](C)O; NMeA = CN[CH](C)C(=O)O; NMeDha = C=C(NC)C(=O)O
Tests used:
[1] = system: N2A mouse neuroblastoma cells; test: Acute N2A neurite retraction induced by schizophrenia plasma autoantibodies; type: cell-based; details: for protection against SCZ autoantibody-induced neurite retraction: antagonist 500 nM
Method: Methods: Plasma from five older adults with chronic schizophrenia and eight age-matched patients having another neuropsychiatric, immune or metabolic disorder was subjected to Protein-A affinity chromatography to obtain IgG autoantibodies. Mean neurite retraction (5 minutes) or cell survival (24 hours) was determined in mouse N2A neuroblastoma cells incubated with autoantibodies in the presence or absence of specific antagonists of the Gq/11/PLC/IP3R signaling pathway, Gi-coupled, beta-arrestin2-directed pathways, or LY379268.
Acute neurite retraction assay. Percent of basal neurite length in N2A cells expressing one or more proximally-located dendrite-like process was determined after interval exposure to test substances (Zimering M B, J Endocrinol Diabetes. 2018; 5(2): 10).
A twenty nanomolar concentration of protein-A eluate fraction of plasma from Pt 1 with schizophrenia was incubated with N2A cells in the presence or absence of the indicated concentration of each Gq/11, GPCR antagonist. Results are the mean+/−SD of two experiments.
A forty nanomolar concentration of plasma autoantibodies (AutoAB) from Pt 1 or Pt, schizophrenia, was incubated in the presence or absence of the indicated concentration of RhoA/Rho kinase (ROCK) inhibitor, or individual antagonists of the Gq11/PLC/IP3R signaling pathway. […]

[2] = system: mouse N2A neuroblastoma cells; test: Acute N2A neurite retraction induced by TBI patient 5-HT2A receptor autoantibodies; type: cell-based; details: 60 nanomolar TBI autoantibodies
Method: Acute neurite retraction. Mouse N2A neuroblastoma cells were maintained in Dulbecco's minimal essential medium with 10% fetal calf serum. […] Neurite retraction represents average neurite length-shortening after five minutes exposure to TBI (5-HT2A receptor) autoantibodies (60-100 nM) in the presence or absence of various G-protein coupled receptor (GPCR) or signaling pathway antagonists.
A 60 nanomolar concentration of the IgG autoantibodies (e.g., 5-HT2A receptor autoantibodies) from a representative TBI patient was incubated with N2A cells in the presence or absence of the indicated concentration of the selective GPCR antagonist.
A 60 nanomolar concentration of 5-HT2A receptor autoantibodies from TBI patients was incubated with N2A cells in the presence or absence of the indicated concentration of Gq11/PLC-gamma/IP3R antagonist or RhoA/Rho kinase pathway inhibitor.
Neurovascular 5-hydroxytryptamine (serotonin) 2A receptor (5-HT2AR) autoantibodies were previously reported to function as long-acting agonists in diabetic angiopathy and subsets of major depression, Parkinson's disease or dementia. The 5-HT2A receptor is highly expressed in specific brain regions underlying cognition, perception and mood regulation. Long-lasting 5-HT2A receptor activation by circulating autoantibodies might contribute to pathophysiology via central and peripheral mechanisms. […]

N2A cells = details: Zimering 2017; cited from earlier work
[3] = antagonist 1-10 μM, did not significantly protect

In the case of `CCCCc1nc(Cl)c(CO)n1Cc1ccc(-c2ccccc2-c2nn[nH]n2)cc1` [Losartan], the “protection against SCZ autoantibody IgG-induced neurite retraction” value [1, 3] is reported as 0-28%.

In the case of `Cc1cc(NC(=O)Nc2ccc3c(ccn3C)c2)sn1` [SB204741], the “protection against SCZ autoantibody IgG-induced neurite retraction” value [1, 3] is reported as 0-28%.

With `COc1ccc2c(c1)CC[C@@H]1[C@@H]2CC[C@]2(C)[C@@H](NCCCCCCN3C(=O)C=CC3=O)CC[C@@H]12` [Peptide U73122] the “protection against acute N2A neurite retraction” value [2] was 89-100% and the “protection against SCZ autoantibody IgG-induced neurite retraction” value ([1]; U73122 one micromolar, 2-APB 50 micromolar) was 72-83%.

For `NCCc1c[nH]c2ccc(O)cc12` [Serotonin], the “time at which agonist-promoted neurite retraction peaked (reversible at longer times)” value (N2A cells) is listed as 3 to 5 min.

In the case of `COc1cc2nc(N3CCN(C(=O)c4ccco4)CC3)nc(N)c2cc1OC` [Prazosin], the “protection against SCZ autoantibody IgG-induced neurite retraction” value [1, 3] is reported as 0-28%.

With `C=C1C(=O)NC(C)C(=O)N(C)C(C)C(=O)NC(C(OC(=O)C(NC(C)=O)C(O)C(C)C)C(C)C)C(=O)N(C)C(C(C)OC)C(=O)OC(C)C(NC(C)=O)C(=O)OC(Cc2ccccc2)C(=O)N1C` (stereo not shown) [YM254890] (Ac-T[PhLac][NMeDha]A[NMeA][X1][NMeT](Me); ester 1-C; configuration not given here) the “protection against acute N2A neurite retraction” value [2] was 89-100%.

In the case of `O=C(CCCN1CCC2(CC1)C(=O)NCN2c1ccccc1)c1ccc(F)cc1` [Spiperone], the “protection against SCZ autoantibody-induced neurite retraction” value [1] is reported as 50-80%.

For `COc1ccccc1Oc1c(NS(=O)(=O)c2ccc(C(C)(C)C)cc2)nc(-c2ncccn2)nc1OCCO` [Bosentan], the “protection against SCZ autoantibody IgG-induced neurite retraction” value [1, 3] was 0-28%.

In the case of `O=C(c1ccc(F)cc1)C1CCN(CCn2c(=O)[nH]c3ccccc3c2=O)CC1` [Ketanserin], the “protection against SCZ autoantibody-induced neurite retraction” value [1] is reported as 50-80%.
